{
  "source": "PubChem BioAssay AID493208",
  "about": "(National Center for Advancing Translational Sciences (NCATS), 2011)",
  "note": "Out of some 44,000 compounds screened, about 340 (0.77%) were called active. Another 5% or so got no clear call; they are omitted. Calls follow the shape of the dose curve; as a rule, active = well fitted inhibition curve with a large enough effect; inconclusive = small, poorly fitted or top-dose-only effect; inactive = flat fitted curve, though single readings scatter. The list shows a part of the results.",
  "data": [
    {"assay": "Acumen qHTS Assay for Inhibitors of the mTORC1 Signaling Pathway in MEF (Tsc2-/-, p53-/-) Cells: Sytravon;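 also: plate controls were DMSO for no effect and rapamycin for full effect; nearly all actives have a fitted effect of over 50% in size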", "settings": "phospho-rpS6 immunofluorescence/PI, 24 h; series mostly up to 38.3 µM; activity change, negative = inhibition: at the top concentration", "procedure,_shortened": "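Tsc2-/-, p53-/- mouse embryonic fibroblasts (empty-vector line) exposed to compound 24 hrs at 37 C, fixed, immunostained for phospho-rpS6 and counterstained with propidium iodide. Acumen laser scanning gives % positive cells from Alexa 488/PI ratio, thresholded using 7.5 nM rapamycin; PI count gives viability.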", "values": [
      {"smiles": "Cc1ccccc1Nc1c(-c2ccsc2)nc2c(C)cccn12", "activity change, negative = inhibition": "inactive: -18.1%"},
      {"smiles": "O=C(NCc1cccc(Cl)c1)c1cccn1-c1nnc(N2CCCC2)s1", "activity change, negative = inhibition": "inactive: -5.6%"},
      {"smiles": "Cc1cc(C)c(Cn2c3ccccc3c3cnn(CC(=O)NCCCc4ccccc4)c(=O)c32)c(C)c1", "activity change, negative = inhibition": "inactive: 0.0411%"},
      {"smiles": "COc1ccc(OC)c(S(=O)(=O)N2Cc3ccccc3CC2C(=O)Nc2ccc(C(C)=O)cc2)c1", "note": "(configuration not stated)", "activity change, negative = inhibition": "inactive: -10.5%"},
      {"smiles": "Cc1ccc(CN(Cc2ccco2)c2cnc(S(C)(=O)=O)nc2C(=O)Nc2ccc(Br)cc2)o1", "activity change, negative = inhibition": "inactive: 0.562%"},
      {"smiles": "COc1ccc(OC)c(CCNC(=O)CCn2c(=O)c3cccn3c3cccnc32)c1", "activity change, negative = inhibition": "inactive: 2.49%"},
      {"smiles": "CCCCN(c1ccccc1)c1ncnc2c1cnn2-c1ccc(Cl)cc1", "activity change, negative = inhibition": "inactive: -0.155%"},
      {"smiles": "CC(C)Cn1c(=O)c2ccccc2n2c(-c3ccc(Br)cc3)nnc12", "activity change, negative = inhibition": "inactive: -19.1%"},
      {"smiles": "Cc1ccccc1NC(=O)Cn1c(=O)n(Cc2ccc3c(c2)OCO3)c(=O)c2oc3ccccc3c21", "activity change, negative = inhibition": "inactive: 0.438%"},
      {"smiles": "Cc1cc(C)cc(C(=O)Nc2cc(C(F)(F)F)ccc2N2CCN(c3ccccc3)CC2)c1", "activity change, negative = inhibition": "inactive: -15.8%"},
      {"smiles": "Cc1ccc(-c2cn3cccc(C)c3n2)cc1NS(=O)(=O)c1ccccc1", "activity change, negative = inhibition": "inactive: -1.64%"},
      {"smiles": "Cc1cccc(N(CC(=O)NC(C)c2ccccc2)S(=O)(=O)c2ccccc2)c1C", "note": "(configuration not stated)", "activity change, negative = inhibition": "inactive: 3.32%"},
      {"smiles": "Cc1ccc(-c2nn3c(C)nnc3c3ccccc23)cc1S(=O)(=O)NCCO", "activity change, negative = inhibition": "inactive: -13.6%"},
      {"smiles": "CC(=O)Nc1ccc(S(=O)(=O)NCC2CCC(C(=O)NCCCOC(C)C)CC2)cc1", "note": "(configuration not stated)", "activity change, negative = inhibition": "inactive: 2.51%"},
      {"smiles": "CCOc1cc(C(=O)OCc2cc(=O)n3c(C)csc3n2)cc(OCC)c1OCC", "activity change, negative = inhibition": "inactive: -6.03%"},
      {"smiles": "CCOC(=O)c1c(NC(=O)c2cc(-c3ccccc3)on2)sc2c1CCCC2", "activity change, negative = inhibition": "inactive: -9.56%"},
      {"smiles": "CC(C)Cn1c(=O)c2sccc2n2c(CCCC(=O)Nc3ccc(Cl)cc3)nnc12", "activity change, negative = inhibition": "inactive: 0.377%"},
      {"smiles": "CS(=O)(=O)c1ncc(N(Cc2ccccc2)Cc2ccco2)c(C(=O)Nc2cccc(C(F)(F)F)c2)n1", "activity change, negative = inhibition": "inactive: 0.381%"},
      {"smiles": "COc1cccc(-c2nc(SCc3cc(=O)c4cc(Cl)ccc4[nH]3)n[nH]2)c1", "activity change, negative = inhibition": "inactive: -5.04%"},
      {"smiles": "Cc1cc(C)c(NC(=O)CSc2nc(=O)n(Cc3ccco3)c3c2CCC3)c(C)c1", "activity change, negative = inhibition": "inactive: -5.7%"},
      {"smiles": "O=C(NCCc1ccc(Cl)cc1)c1ccc2nc(Cc3ccccc3)oc2c1", "activity change, negative = inhibition": "inactive: 1.21%"},
      {"smiles": "CCc1ccc(CN(Cc2ccco2)C(=O)c2cc(-c3ccc(Cl)cc3)on2)cc1", "activity change, negative = inhibition": "inactive: -4.14%"},
      {"smiles": "Cc1cc2c(cc1S(=O)(=O)Nc1cccc(C(F)(F)F)c1)OCCN2C", "activity change, negative = inhibition": "inactive: -2.69%"},
      {"smiles": "CCOc1ccc(-c2nonc2NC(=O)c2ccccc2C)cc1", "activity change, negative = inhibition": "inactive: -18.8%"},
      {"smiles": "COc1ccc2c(Sc3ccccc3)c(C(=O)NCCN(C)C)[nH]c2c1", "activity change, negative = inhibition": "inactive: 0.444%"},
      {"smiles": "O=C(Cc1ccc(Cl)cc1)Nc1ccc2oc(-c3ccccc3)nc2c1", "activity change, negative = inhibition": "inactive: 3.18%"},
      {"smiles": "CCN(CC)C(=O)c1sc2c(c1C)c(=O)n(-c1ccc(C)c(C)c1)c(=O)n2CC(=O)Nc1ccc(F)cc1", "activity change, negative = inhibition": "inactive: 1.79%"},
      {"smiles": "CC(C)Oc1ccc(CNC(=O)Cc2ccc(NC(=O)N3CCSc4ncccc43)cc2)cc1", "activity change, negative = inhibition": "inactive: 0%"},
      {"smiles": "Cc1ccc2c(c1)c(=O)c(S(=O)(=O)c1ccc(F)cc1)cn2CC(=O)Nc1ccc2c(c1)OCO2", "activity change, negative = inhibition": "inactive: -0.385%"},
      {"smiles": "Cc1ccc(Cl)cc1NC(=O)NC1COc2ccccc2C1", "note": "(configuration not stated)", "activity change, negative = inhibition": "inactive: -0.0612%"},
      {"smiles": "CCC(Cn1nnc2ccccc2c1=O)NC(=O)Nc1cc(Cl)ccc1OC", "note": "(configuration not stated)", "activity change, negative = inhibition": "inactive: -3.89%"},
      {"smiles": "Cc1cccc(C2N3CC4(C(C)C)CN2CC(C(C)C)(C3)C4=O)c1", "note": "(configuration not stated)", "activity change, negative = inhibition": "inactive: -6.95%"},
      {"smiles": "Cn1c(=O)oc2cc(S(=O)(=O)NCCC(=O)Nc3ccc(F)c(Cl)c3)ccc21", "activity change, negative = inhibition": "inactive: -19%"},
      {"smiles": "CC(C)CN(CCNC(=O)c1cc(=O)[nH]c2ccc(S(=O)(=O)N3CCCCCC3)cc12)CC(C)C", "activity change, negative = inhibition": "inactive: 7.98%"},
      {"smiles": "Cc1ccc(C)c(OCCOCCn2c(-c3ccc(Br)cc3)nc3ccccc3c2=O)c1C", "activity change, negative = inhibition": "inactive: -26.1%"},
      {"smiles": "Cc1cccc(Cn2c(CNS(=O)(=O)c3ccc(Cl)s3)nc3cccnc32)c1", "activity change, negative = inhibition": "inactive: -5.67%"},
      {"smiles": "Cc1ccc2[nH]c(CSc3nnc(NC(=O)COc4ccccc4F)s3)cc(=O)c2c1", "activity change, negative = inhibition": "inactive: 0%"},
      {"smiles": "CCOc1ccc(-c2cc3c(=O)n(CC(=O)Nc4c(C)cccc4C)ccn3n2)cc1", "activity change, negative = inhibition": "inactive: 0%"},
      {"smiles": "Fc1ccc(-c2csc(-c3nc(-c4ccc(Br)s4)cs3)n2)cc1", "activity change, negative = inhibition": "inactive: 2.49%"},
      {"smiles": "Cc1ccc(Cl)cc1NC(=O)/C(C#N)=C/c1c(C)n(Cc2ccccc2)c2ccccc12", "activity change, negative = inhibition": "inactive: 12.4%"},
      {"smiles": "CC1CCCCN1C(=O)CSc1nnc(-c2cccc(Cl)c2)o1", "note": "(configuration not stated)", "activity change, negative = inhibition": "inactive: 1.74%"},
      {"smiles": "CC(=O)N1CCCc2cc(S(=O)(=O)N(C)CC(=O)Nc3ccc(F)c(Cl)c3)ccc21", "activity change, negative = inhibition": "inactive: -16.6%"},
      {"smiles": "CCOc1ccc(NC(=O)CCCN2C(=O)C(c3ccccc3)Oc3cccnc32)cc1", "note": "(configuration not stated)", "activity change, negative = inhibition": "inactive: -0.0942%"},
      {"smiles": "Cc1ccc(NC(=O)c2ccc3nc(Cc4ccccc4)oc3c2)cc1F", "activity change, negative = inhibition": "inactive: 5.1%"},
      {"smiles": "CCN(CC)c1ccc2cc(-c3nnc(-c4cccc(Cl)c4)o3)c(=O)oc2c1", "activity change, negative = inhibition": "inactive: 2.87%"},
      {"smiles": "Cc1csc2nc(-c3cccc(NC(=O)c4cccc(F)c4)c3)cn12", "activity change, negative = inhibition": "inactive: -8.07%"},
      {"smiles": "Cc1ccc(NC(=O)c2ncn(-c3ccccc3)n2)c(Cl)c1", "activity change, negative = inhibition": "inactive: 4.48%"}
    ]}
  ]
}
